Results reported in PubChem BioAssay AID1963576 (National Center for Advancing Translational Sciences (NCATS), 2024).
About 60 (0.1%) of roughly 46,000 compounds were called active. Roughly 3% stayed inconclusive and do not appear here. Calls follow the shape of the dose curve; as a rule, active = well fitted inhibition curve with a large enough effect; inconclusive = small, poorly fitted or top-dose-only effect; inactive = no such curve, though single readings can be large or run the other way. This is one part of the list.

assay: Primary qHTS assay for Inhibitors of ovarian cancer metastasis using an organotypic tumor microenvironment (TME) model.; also: nearly all actives have a fitted effect of over 65% in size;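 as to activity change, negative = inhibition: plate controls were DMSO wells for no effect and tomatine positive control wells for full effect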; settings: SKOV3ip1-GFP adhesion/invasion on 3D omental model, fluorescence; series mostly up to 45.8 µM; activity change, negative = inhibition: at the top concentration
Procedure, shortened: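 A 3D layer of primary human omental fibroblasts, mesothelial cells, fibronectin and collagen I, grown 48 hr, received SKOV3ip1-GFP cells in serum-free medium plus compounds at 0.36-46 umol/L. After 2 hr RT and 16 hr 37 C, fixed adherent GFP cells were counted; normalized to DMSO and tomatine.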

Row | Structure (SMILES) | activity change, negative = inhibition | outcome
1 | CCOC(=O)c1ccc(-n2c(CCC(=O)O)ccc2-c2ccccc2)cc1O | inactive: 1.57% | –
2 | CCC(C)(C)NC(=O)C(NS(=O)(=O)c1cccs1)c1ccccc1 (stereo unspecified) | – | inactive
3 | Cc1cc(F)ccc1Nc1nc2ccc(Cl)cc2n2cnnc12 | inactive: -1.9% | –
4 | O=C(Cc1ccc(Cl)cc1)NCCc1csc2nc(-c3ccccc3F)nn12 | inactive: 4.61% | –
5 | CC(C)CCNc1nc(Nc2ccccc2)c2cnn(C)c2n1 | – | inactive
6 | CC(CC(=O)Nc1ccc(F)cc1)S(=O)(=O)c1cc2c3c(c1)CCN3C(=O)CC2 (stereo unspecified) | – | inactive
7 | Cc1cc(=O)oc2cc(O)ccc12 | inactive: -10.2% | –
8 | Cc1ccc(CNc2cc(C)nc3nc(-c4ccc(C)cc4)nn23)cc1 | – | inactive
9 | O=C(NC1CCCCC1)c1ccc2c(c1)N(Cc1cccc(Cl)c1)C(=O)c1ccccc1S2(=O)=O | inactive: 2.33% | –
10 | COC(=O)c1ccccc1NC(=O)CSc1nc2ccccc2nc1Cc1ccc(F)cc1 | inactive: -9.16% | –
11 | CNc1ccc(-c2nc(-c3ccncc3)no2)cc1[N+](=O)[O-] | – | inactive
12 | COc1ccc(CNC(=O)CCc2c(C)nc3cc(-c4ccc(OC)cc4OC)nn3c2C)cc1 | inactive: -8.04% | –
13 | CCOC(=O)c1cc(-c2ccc(F)cc2)n(CCC(=O)NC2CCC(C)CC2)c1C (stereo unspecified) | inactive: -6.64% | –
14 | COc1cccc(-c2ccc(NC(=O)C3=C(C(=O)O)CCC3)c(F)c2)c1 | inactive: 11.3% | –
15 | CCc1ccc(NC(=O)CSc2nc(-c3ccc(C)cc3)nc3c2Cc2c(CO)cnc(C)c2O3)cc1 | inactive: -6.54% | –
16 | CCOc1ccc2nc(N3CCCC(C(=O)Nc4ccccc4CC)C3)sc2c1 (stereo unspecified) | inactive: -0.201% | –
17 | CCOC(=O)c1c(NC(=O)c2cc(-c3cccc(Cl)c3)on2)sc(C)c1C | – | inactive
18 | Fc1ccc(Nc2nc(-c3cccc(Cl)c3)c3c(n2)-c2ccccc2OC3)c(F)c1 | inactive: 0.561% | –
19 | Fc1ccc(-c2cc(-c3ccc(F)cc3)c3c(n2)-c2cc(F)ccc2OC3)cc1 | inactive: 1.84% | –
20 | Cc1cccc(NC(=O)Cn2c(=O)n(CC3CCC(C(=O)NCCc4ccccc4)CC3)c(=O)c3ccccc32)c1 (stereo unspecified) | inactive: 1.07% | –
21 | COc1ccc(S(=O)(=O)n2nc(-c3ccco3)nc2NCc2ccc(C(C)C)cc2)cc1 | inactive: 3.89% | –

Row | Structure (SMILES) | activity change, negative = inhibition | outcome
22 | Clc1cccc(-c2nnnn2Cc2cccnc2)c1Cl | inactive: -20% | –
23 | Cc1c(NC(=O)c2cccs2)cccc1-c1nc2cc(Cl)ccc2o1 | inactive: 2.57% | –
24 | CCc1ccc(-c2nc3cc(NC(=O)c4ccc(C)c(C)c4)ccc3o2)cc1 | – | inactive
25 | COc1cccc(NC(=O)Cn2c(=O)n(Cc3ccc(F)cc3)c(=O)c3sc4ccccc4c32)c1 | – | inactive
26 | COc1ccc(S(=O)(=O)NCc2cccn2Cc2cc(C)ccc2C)cc1OC | inactive: 0.952% | –
27 | CCc1nnc2c3ccccc3nc(Nc3cc(C)cc(C)c3)n12 | inactive: -3.49% | –
28 | COc1ccc(-c2cc(-c3nc(-c4cc(OC)c(OC)c(OC)c4)no3)[nH]n2)c(OC)c1 | inactive: 2.64% | –
29 | CCOc1ccc(C(=O)Nc2ccc(OCc3cc(=O)n4cccc(C)c4n3)cc2)cc1 | inactive: 7.2% | –
30 | Cc1ccc(-n2ncc(C(=O)NCCN3CCN(C)CC3)c2C2CCN(C(=O)OC(C)(C)C)CC2)cc1C | inactive: 14.3% | –
31 | COc1cccc(NC(=O)Cn2c(=O)n(Cc3ccc4c(c3)OCO4)c(=O)c3oc4ccccc4c32)c1 | inactive: -1.83% | –
32 | O=C(CCCCCCNC(=O)c1cnc(N(c2ccccc2)c2ccccc2)nc1)NO | inactive: -12.6% | –
33 | COc1ccc(NC(=O)[C@H](Cc2ccccc2)N2Cc3ccccc3C2=O)cc1OC | – | inactive
34 | CC(=O)c1cccc(NS(=O)(=O)c2c(C(=O)N3CCCCCC3)c(C)n(C)c2C)c1 | inactive: -2.22% | –
35 | COc1ccc2c(c1)c(N1CCCC1=O)c(C(=O)Nc1ccc(OC)c(Cl)c1)n2C | inactive: 3.06% | –
36 | CCOc1ccc(CNC(=O)Cn2c(=O)c3cccn3c3cccnc32)cc1 | inactive: 8.6% | –
37 | O=c1[nH]c(=O)n([C@H]2C[C@@H](O)[C@@H](CO)O2)cc1I | inactive: 3.17% | –
38 | COc1cc(NC(=O)c2noc3c2CC(C)CC3)c(OC)cc1Cl (stereo unspecified) | inactive: 2.96% | –
39 | CCc1ccc(CNC(=O)CCn2nc(C)c3c(C)n(-c4ccccc4)nc3c2=O)cc1 | – | inactive
40 | Cc1ccc(S(=O)(=O)c2cn(Cc3ccccc3)c3cc(N4CCOCC4)c(F)cc3c2=O)cc1 | – | inactive
41 | Cc1nn(-c2ccccc2)c2c1N(CCCC(=O)NC(C)c1ccccc1)C(=O)CS2 (stereo unspecified) | – | inactive
42 | Cc1nn(-c2ccccc2)c2c1N(CC(=O)N1CCN(c3ccc(Cl)cc3)CC1)C(=O)CS2 | – | inactive

Row | Structure (SMILES) | activity change, negative = inhibition | outcome
43 | CCc1ccc(NC(=O)c2cc(S(=O)(=O)NC3CCCCCC3)ccc2F)cc1 | inactive: -4.26% | –
44 | Cc1cc(C)n2nc(CNC(=O)c3ccc(Cl)cc3)nc2n1 | – | inactive
45 | O=C(Nc1ccccc1)c1cccc(N2CCCS2(=O)=O)c1 | inactive: 2.63% | –
46 | COc1ccc(C(CC(=O)Nc2ncccc2C)N2Cc3ccccc3C2=O)cc1OC (stereo unspecified) | inactive: 37.4% | –
47 | Cc1nn2c(-c3ccccc3)cc(-c3ccccc3)nc2c1-c1ccc(Cl)cc1 | inactive: -5.52% | –
48 | Cc1nn(CCCC(=O)Nc2ccccc2C(F)(F)F)c(=O)c2nn(-c3ccccc3)c(C)c12 | inactive: 1.51% | –
49 | CC1CCC(NC(=O)c2ccc(CSc3nc4ccncc4n3Cc3ccc(F)cc3)cc2)CC1 (stereo unspecified) | inactive: -27.2% | –
50 | COc1ccc(-n2c(SCCC(C)C)nc3sc4c(c3c2=O)CC(C(C)C)OC4)cc1 (stereo unspecified) | inactive: -2.77% | –
51 | O=C(Cn1c(=O)ccc2cc(S(=O)(=O)N3CCCC3)ccc21)Nc1ccccc1 | inactive: -4.66% | –
52 | Cc1ccc(Cl)cc1N1CCN(C(=O)c2ccc3c(Cl)c4c(nc3c2)CCCC4)CC1 | inactive: 19.1% | –
53 | COc1cccc(-c2nc(CS(=O)(=O)CC(=O)N3CCN(c4ccccc4)CC3)c(C)o2)c1 | – | inactive
54 | CC(=O)NCC(=O)N1[C@H]2CC[C@H]1c1cc(Nc3ncc(C(F)(F)F)c(NC4CCC4)n3)ccc12 | inactive: -14.6% | –
55 | O=S(=O)(Nc1ccc(O)c(Sc2nc3ccccc3s2)c1)c1cc(Cl)ccc1Cl | inactive: 0.867% | –
56 | CC1CCCCN1c1cc2c(cc1F)c(=O)c(S(=O)(=O)c1ccccc1)cn2Cc1ccccc1 (stereo unspecified) | inactive: 7.1% | –
57 | Cc1c(Cl)cccc1NC(=O)C(=O)NCCc1csc2nc(-c3ccccc3F)nn12 | inactive: 0.484% | –
58 | CCCCOc1ccc(CNC(=O)c2cnc3sc(N4CCCC4)nn3c2=O)cc1 | inactive: 0.54% | –
59 | CCC(=O)N1c2ccccc2CC1C(=O)NCCCN1CCN(c2ccc(OC)cc2)CC1 (stereo unspecified) | – | inactive
60 | CCn1cc(C(=O)NCCC(C)C)c(=O)c2cc(S(=O)(=O)N(C)C3CCCCC3)ccc21 | – | inactive
61 | CCn1ccc2c(OCC(=O)Nc3ccc(OC)cc3OC)cccc2c1=O | inactive: 0.543% | –
